Laboratory results as given in ChEMBL document CHEMBL1157539, “Thousands of chemical starting points for antimalarial lead identification” (Nature, 2010).
The full ranking holds about 13,000 compounds; the median of “IFI” is about 4, and the highest 2% start at about 17. The list shows a part of the results.

Experiment: GSK_TCMDC: Inhibition Frequency Index (IFI). The number of non-kinase HTS assays where a compound showed > 50 % inhibition, expressed as a percentage of the number of such assays in which the compound was tested (-0 is zero)
Assay type: functional

Q: Which IFI does the source give for `O=C(/C=C/c1ccc(Cl)c(Cl)c1)NCCCCCN1CCCN(C(=S)Nc2cccc(Cl)c2)CC1` here?
A: 4.72%

Q: Which IFI does the source give for `Oc1ccc(CC2CCCN(c3nc(NCCCOc4ccccc4-c4ccccc4)nc(N4CCNCC4)n3)C2)cc1` (centres undefined) here?
A: 16.4%

Q: Which IFI does the source give for `O=C(N[C@@H](Cc1ccccc1)[C@H](O)CNCCC(F)(F)F)c1cccc(OCC2CC2)c1` here?
A: 6.1%

Q: For `CC(C)CNCc1cccc(-c2cccc(CN(CCCN3CCN(C)CC3)C(=O)NC3CCCCC3)c2)c1`, which IFI is on record?
A: 3.88%

Q: Which IFI does the source give for `COc1cc(C(=O)NCCCN2CCN(c3cccc(Cl)c3)CC2)ccc1-c1cc2cc(Cl)c(Cl)cc2[nH]1` here?
A: 2.96%

Q: With `CCNc1cc(C(=O)N[C@@H](Cc2ccccc2)[C@H](O)CNC2CC3CCC2C3)cc(N2CCCCS2(=O)=O)c1` (some centres undefined) as the compound, how does the IFI read?
A: -0%

Q: With `COc1ccc(-c2ccc(NC(=O)c3ccc(C#N)cc3)cc2)cc1CN1CCN(C)CC1` as the compound, how does the IFI read?
A: 2.67%

Q: Which IFI does the source give for `Cc1cc(-c2ccc(S(=O)(=O)Nc3cc4c(cc3OC(C)C)CCN(C)CC4)cc2)ccc1Cl` here?
A: 11.3%

Q: With `Cc1ccoc1C(=O)Nc1cccc(-c2cccc(-c3nc4ccccc4[nH]3)c2)c1` as the compound, how does the IFI read?
A: 3.7%

Q: With `CCN(CC)CCCC(C)N=c1cc(C=Cc2ccc([N+](=O)[O-])cc2)[nH]c2ccc(OC)cc12` (centres undefined) as the compound, how does the IFI read?
A: 1.65%

Q: For `COc1ccccc1CCN1CCC(CN(C)Cc2ccc(O)c(Cl)c2)CC1`, which IFI is on record?
A: 2.5%

Q: For `CCCc1cc(C)ccc1OCCCON1C(NC(=O)OCC)=NC(NC(=O)OCC)=NC1(C)C`, which IFI is on record?
A: 3.52%

Q: Which IFI does the source give for `O=C(Nc1ccc(-c2ccccc2)cc1)Nc1cccc(OCCN2CCCC2)c1` here?
A: 1.45%

Q: Which IFI does the source give for `Cc1cc(CN2CC[C@H](NC(=O)c3ccc(Cl)c(Cl)c3)C2)ccc1OC1CCN(C)C1` (some centres undefined) here?
A: 8%

Q: With `Cc1cc(O)nc(NC(=N)NOCc2ccccc2)n1` as the compound, how does the IFI read?
A: 0.73%

Q: Which IFI does the source give for `O=C(Nc1ccc(S(=O)(=O)N2CCCCC2)cc1)c1cc(-c2cc(Cl)ccc2O)n[nH]1` here?
A: 4.76%

Q: With `O=C(/C=C/c1ccc(C(F)(F)F)cc1)NCCCCCN1CCCN(C(=O)Nc2ccc(F)c(Cl)c2)CC1` as the compound, how does the IFI read?
A: 10.9%

Q: With `CCn1ccc2c(N3CCCS3(=O)=O)cc(C(=O)N[C@@H](Cc3ccccc3)[C@H](O)CNC(C)(C)c3cccc(OC)c3)cc21` as the compound, how does the IFI read?
A: 5.07%

Q: For `CC(=O)Oc1c(C2CCN(CCCCNC(=O)c3ccc(NC(=O)c4ccc(Cl)cc4)cc3)CC2)ccc2ccccc12`, which IFI is on record?
A: 5.61%

Q: For `CCCCNC(=N)c1ccc(OCCCCCOc2ccc(C(=N)NCCCC)cc2)cc1`, which IFI is on record?
A: 2.26%

Q: Which IFI does the source give for `CC(C)(C)c1ccc(CNC(=O)c2ccc(-c3nc4ccc(Cl)cc4[nH]3)cc2)cc1` here?
A: 0.73%

Q: Which IFI does the source give for `CN(c1ccc2c(c1)nc(NCc1ccccc1)n2C)c1ccnc(Nc2ccc(CS(C)(=O)=O)cc2)n1` here?
A: 5.19%

Q: For `O=C(Cc1ccc(NC(=O)c2ccc(O)c(-c3ccc(Cl)c(Cl)c3)c2)cc1)NCCc1ccc(Cl)c(Cl)c1`, which IFI is on record?
A: 2.22%

Q: Which IFI does the source give for `Cc1ccccc1CN1CCCN(Cc2ccc(C(=O)Nc3ccc(Cl)cc3)cc2)CC1` here?
A: 10.2%

Q: For `CN(C)c1ccc(-c2ccc(C(=O)NC3CCN(Cc4ccc5c(c4)OCCO5)CC3)s2)cc1`, which IFI is on record?
A: 15.5%

Q: For `Cc1cc(N)ncc1-c1ccc(NC(=O)Nc2cc(C(F)(F)F)ccc2F)cc1`, which IFI is on record?
A: 6.67%

Q: Which IFI does the source give for `Cc1cc(OCc2ccncc2)cc2c1C(=O)CC(C)(C)O2` here?
A: 2.82%

Q: For `CCCNCc1ccc(-c2ccc(CN(CCOC)C(=O)Cc3cccnc3)cc2)nc1`, which IFI is on record?
A: 0.7%

Q: Which IFI does the source give for `O=S(=O)(NC1CCN(c2ccnc3ccccc23)C1)c1ccc(OC(F)(F)F)cc1` (centres undefined) here?
A: 4.69%

Q: Which IFI does the source give for `CC(Cc1ccc(OCCN2CCN(c3cccc(C(F)(F)F)c3)CC2)cc1)NCC(O)c1cccc(C(F)(F)F)c1` (centres undefined) here?
A: 10.8%

Q: With `Cc1ccc2oc3cc(-c4nnn[nH]4)ccc3c(=O)c2c1` as the compound, how does the IFI read?
A: 2.27%

Q: Which IFI does the source give for `O=C(NC1CCCCC1)N(Cc1ccc(-c2ccc(CNC3CCCC3)cc2)cc1)C1CCN(Cc2ccccc2)CC1` here?
A: 8.46%

Q: Which IFI does the source give for `CCn1c(-c2nonc2N)nc2c(-c3cccc(NC(=O)NC45CC6CC(CC(C6)C4)C5)c3)ncc(OCCCN)c21` here?
A: 16.7%

Q: With `CCNc1cc(C(=O)N[C@@H](Cc2ccccc2)[C@H](O)CNC2(CCC(C)C)CC2)cc(N2CCCCS2(=O)=O)c1` as the compound, how does the IFI read?
A: 2.94%

Q: Which IFI does the source give for `CC(C)CN(c1nc(C(=O)NNC(=O)[C@H](CC2CC2)NC(=O)c2cc3cc(OCCN(C)C)ccc3o2)cs1)C1CC1` here?
A: 3.65%

Q: Which IFI does the source give for `O=C(Nc1ccccc1)Nc1cccc(-c2nn3c(OCCN4CCCC4)cccc3c2-c2ccncc2)c1` here?
A: 7.75%

Q: Which IFI does the source give for `Cc1ccc(-c2nc3ccccc3o2)cc1NCc1cc(Cc2ccccc2)ccc1O` here?
A: 2.19%

Q: For `O=C(Nc1nc(-c2ccccn2)cs1)c1ccc(Br)s1`, which IFI is on record?
A: 6.82%

Q: For `COc1ccc(CSC2CCCCC23NC(=S)NC3=S)cc1` (centres undefined), which IFI is on record?
A: 2.94%

Q: Which IFI does the source give for `Cc1cc(-c2ccc3c(c2)CC[C@@H](N[C@@H](C)c2ccccc2)C3)cnc1N` here?
A: 5.07%

Q: Which IFI does the source give for `COC(=O)c1cccc(CNCc2ccc(-c3cccc(-c4nc5cc(C(F)(F)F)ccc5[nH]4)c3)cc2)c1` here?
A: 5.71%

Q: Which IFI does the source give for `CCCN(CCCCCCNCCc1ccc(Cl)cc1)CCc1ccc(O)c(O)c1` here?
A: 6.8%

Q: For `O=C(NCCCCN1CCC(c2nc3ccccc3s2)CC1)c1cc2ccccc2[nH]1`, which IFI is on record?
A: 10.6%

Q: With `Nc1c2c(nc3ccccc13)C(=Cc1ccc(O)cc1)CCC2` as the compound, how does the IFI read?
A: 3.55%

Q: Which IFI does the source give for `COc1ccc(Cc2nc3c(n2C(C)=O)SC(c2ccc(Cl)c(Cl)c2)=NN3C(C)=O)cc1` here?
A: 0%

Q: With `Cc1cc(OCC(=O)Nc2ccc(-c3nc4ccccc4[nH]3)cc2)cc(C)c1Cl` as the compound, how does the IFI read?
A: -0%

Q: Which IFI does the source give for `CC(C)(C)OC(=O)NCc1ccc(Nc2nnc(-c3cccc(OCC(=O)NCc4cc(C(F)(F)F)cc(C(F)(F)F)c4)c3)o2)cc1` here?
A: 2.96%

Q: For `O=C(NC1CCC1)C1CCN(C(c2ccccc2)c2cc(F)cc(F)c2)CC1` (centres undefined), which IFI is on record?
A: 2.82%

Q: With `N#Cc1ccc(NC(=O)NC2CCN(CCCCCNC(=O)/C=C/c3ccc(Cl)c(Cl)c3)CC2)cc1` as the compound, how does the IFI read?
A: 4.03%

Q: For `O=C(Nc1ccc(F)c(F)c1)c1ccc(CN2CCCN(Cc3cccc(F)c3)CC2)cc1`, which IFI is on record?
A: 8.8%

Q: For `Cc1occc1C(=O)Nc1nc(-c2ccccn2)nc2ccsc12`, which IFI is on record?
A: 8.21%

Q: For `COc1ccc2ncc(F)c(CCN3CC[C@@H](CNCc4cc(C)c5c(c4)OCCO5)C3)c2n1`, which IFI is on record?
A: 6.73%

Q: For `Oc1ccc(CCNc2nc(NCc3ccccc3-c3ccc(C(F)(F)F)cc3)nc(N3CCNCC3)n2)cc1`, which IFI is on record?
A: 13.1%

Q: For `COc1ccc(F)cc1-c1cccc(CNC2CCN(CC3Cn4c(=O)ccc5ccc(F)c3c54)CC2)c1` (centres undefined), which IFI is on record?
A: 8.77%
